{
  "source": "paper PMC4336329",
  "about": "(PLoS ONE, 2015)",
  "note": "In all, about 310,000 compounds went through this assay and about 2,200 (0.71%) showed an effect of 50% or more. Effects have a minus sign here. The list shows a part of the results.",
  "data": [
    {"target": "human ether-à-go-go-related gene (hERG) potassium channel (human, UniProt Q12809)", "sequence (Q12809 whole entry, looked up)": "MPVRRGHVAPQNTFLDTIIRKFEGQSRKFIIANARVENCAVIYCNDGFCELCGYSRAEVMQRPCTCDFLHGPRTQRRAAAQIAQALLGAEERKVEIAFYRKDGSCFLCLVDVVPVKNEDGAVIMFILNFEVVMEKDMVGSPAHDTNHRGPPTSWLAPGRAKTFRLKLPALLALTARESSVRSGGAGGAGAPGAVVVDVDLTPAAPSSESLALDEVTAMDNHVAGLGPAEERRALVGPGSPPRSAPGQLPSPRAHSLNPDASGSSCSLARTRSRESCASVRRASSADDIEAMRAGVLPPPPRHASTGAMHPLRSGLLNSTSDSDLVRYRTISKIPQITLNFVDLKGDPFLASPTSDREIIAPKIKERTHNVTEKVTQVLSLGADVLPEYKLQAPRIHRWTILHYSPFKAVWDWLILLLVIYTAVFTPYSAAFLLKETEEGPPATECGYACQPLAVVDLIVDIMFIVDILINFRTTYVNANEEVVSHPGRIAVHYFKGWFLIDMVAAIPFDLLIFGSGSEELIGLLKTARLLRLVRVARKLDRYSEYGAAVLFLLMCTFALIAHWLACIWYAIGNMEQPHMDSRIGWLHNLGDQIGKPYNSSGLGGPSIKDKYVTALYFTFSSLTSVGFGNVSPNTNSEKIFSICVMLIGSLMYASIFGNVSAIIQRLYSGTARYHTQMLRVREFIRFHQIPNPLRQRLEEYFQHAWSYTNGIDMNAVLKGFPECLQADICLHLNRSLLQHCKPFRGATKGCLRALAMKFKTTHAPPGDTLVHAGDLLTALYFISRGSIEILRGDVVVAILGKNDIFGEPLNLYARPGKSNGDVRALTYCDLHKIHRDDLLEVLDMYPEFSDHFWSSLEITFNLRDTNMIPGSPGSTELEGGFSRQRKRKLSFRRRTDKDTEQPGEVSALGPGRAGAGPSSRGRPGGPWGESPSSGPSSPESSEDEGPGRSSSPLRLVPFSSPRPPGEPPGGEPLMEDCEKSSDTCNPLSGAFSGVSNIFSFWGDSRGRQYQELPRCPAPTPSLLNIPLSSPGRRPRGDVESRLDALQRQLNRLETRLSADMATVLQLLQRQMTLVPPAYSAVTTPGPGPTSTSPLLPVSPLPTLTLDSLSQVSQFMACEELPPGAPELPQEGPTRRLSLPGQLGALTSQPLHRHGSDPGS", "assay": "primary screen, population patch clamp on CHO cells stably expressing hERG", "units": {"hERG current change (%, negative = inhibition) at 1uM": "%"}, "values": [
      {"molecule": "CCCCn1c(N)c(N(CC(C)C)C(=O)CC(NC(=O)c2ccccc2)c2ccccc2)c(=O)[nH]c1=O", "note": "(stereo not shown)", "hERG current change (%, negative = inhibition) at 1uM": 10.9},
      {"molecule": "COc1nc2ccccc2c(=O)n1-c1ccc(C)cc1", "hERG current change (%, negative = inhibition) at 1uM": 7.4},
      {"molecule": "Cc1ccccc1N1CCN(C2CCCN(C(=O)CCc3c(C)noc3C)C2)CC1", "note": "(stereo not shown)", "hERG current change (%, negative = inhibition) at 1uM": -29.2},
      {"molecule": "O=C(c1cccs1)N1CCN(S(=O)(=O)N2CCOCC2)CC1", "hERG current change (%, negative = inhibition) at 1uM": -1.4},
      {"molecule": "COc1ccc(N2CCN(C(=O)c3cn(C4CCCC4)c(=O)c4c3c3ccccc3n4C)CC2)cc1", "hERG current change (%, negative = inhibition) at 1uM": 5.81},
      {"molecule": "COc1cccc(/C=C/C(=O)N2CCN(S(=O)(=O)c3ccccc3)CC2)c1OC", "hERG current change (%, negative = inhibition) at 1uM": -0.35},
      {"molecule": "O=C(N/N=C1/CCS(=O)(=O)c2ccc(F)cc21)c1cccnc1", "hERG current change (%, negative = inhibition) at 1uM": 13.7},
      {"molecule": "CN1CCN(c2cc3c(c4c2[nH]c2ccccc24)C(=O)CC(C)(C)C3)CC1.Cl", "hERG current change (%, negative = inhibition) at 1uM": 9.45},
      {"molecule": "COc1ccc(N2CCN(CC(=O)N3N=CCC3c3ccccc3)CC2)cc1", "note": "(stereo not shown)", "hERG current change (%, negative = inhibition) at 1uM": 2.09},
      {"molecule": "CN(C(=O)c1c(Cl)cnn1C)C12CC3CC(CC(C3)C1)C2", "hERG current change (%, negative = inhibition) at 1uM": 7.8},
      {"molecule": "Cc1cc(OC(=O)c2c(C)cc(O)cc2O)cc(O)c1C(=O)O", "hERG current change (%, negative = inhibition) at 1uM": 14.8},
      {"molecule": "O=C(NCCCN1CCCC1)c1cc2c(Cl)nc3ccccc3c2s1", "hERG current change (%, negative = inhibition) at 1uM": 11.4},
      {"molecule": "O=C(COC(=O)c1ccc(NS(=O)(=O)c2ccc(F)c(F)c2)cc1)NCC1CCCO1", "note": "(stereo not shown)", "hERG current change (%, negative = inhibition) at 1uM": 4.24},
      {"molecule": "O=C(NC1CCN(C(=O)NC2CCCCC2)CC1)c1ccco1", "hERG current change (%, negative = inhibition) at 1uM": 9.4},
      {"molecule": "CN(C)c1nc(N)nc(/C(C#N)=C/C2CC3C=CC2C3)n1", "note": "(stereo not shown)", "hERG current change (%, negative = inhibition) at 1uM": 9.42},
      {"molecule": "Cc1nc2ccccc2c2oc(C(=O)NCC3CCCO3)cc12", "note": "(stereo not shown)", "hERG current change (%, negative = inhibition) at 1uM": -8.21},
      {"molecule": "COC(=O)c1c(NC(=O)c2ccn(C)n2)sc2c1CCC2", "hERG current change (%, negative = inhibition) at 1uM": 8.56},
      {"molecule": "CC1CCc2c(c3ccccc3n2C(=O)CCl)C1", "note": "(stereo not shown)", "hERG current change (%, negative = inhibition) at 1uM": 10.9},
      {"molecule": "COc1ccc(NC(=O)c2c(NC(=O)CNCc3ccco3)sc3c2CCC3)cc1", "hERG current change (%, negative = inhibition) at 1uM": 18.5},
      {"molecule": "O=[N+]([O-])c1cc(S(=O)(=O)Nc2cccc(C(F)(F)F)c2)ccc1-n1nnc2ccccc21", "hERG current change (%, negative = inhibition) at 1uM": -3.95},
      {"molecule": "Clc1ccc2[nH]c3c(NCC4CCCO4)ncnc3c2c1", "note": "(stereo not shown)", "hERG current change (%, negative = inhibition) at 1uM": -3.05},
      {"molecule": "O=C(CSc1cccc[n+]1[O-])c1cc2ccccc2o1", "hERG current change (%, negative = inhibition) at 1uM": -0.219},
      {"molecule": "CC(=O)Nc1cccc(-c2csc(Nc3ccccn3)n2)c1", "hERG current change (%, negative = inhibition) at 1uM": 7.88},
      {"molecule": "CSc1nc2nc3c(cc2c(=O)[nH]1)C(O)Oc1ccc(C)cc1-3", "note": "(stereo not shown)", "hERG current change (%, negative = inhibition) at 1uM": 5.33},
      {"molecule": "CS/C(=C\\[N+](=O)[O-])Nc1ccc(F)cc1", "hERG current change (%, negative = inhibition) at 1uM": 15.6},
      {"molecule": "CCCCn1cnc2c(c1=O)c1nc3ccccc3nc1n2Cc1ccc2c(c1)OCO2", "hERG current change (%, negative = inhibition) at 1uM": 14.8},
      {"molecule": "COc1cc(OC)c(N(C)S(=O)(=O)c2cccc(C(=O)OCC(=O)c3c[nH]c4ccccc34)c2)cc1Cl", "hERG current change (%, negative = inhibition) at 1uM": 13.2},
      {"molecule": "O=C(c1cccn2c(=O)c3cc(Cl)ccc3nc12)N1CCOCC1", "hERG current change (%, negative = inhibition) at 1uM": -20.8},
      {"molecule": "Cc1nc(S/C(=C/c2ccc(-c3cc(Cl)ccc3C)o2)C(=O)O)n[nH]1", "hERG current change (%, negative = inhibition) at 1uM": 8.81},
      {"molecule": "Cn1cc(C(=O)N2CCN(c3ccccc3)CC2)c(=O)c2cc(S(=O)(=O)N3CCOCC3)ccc21", "hERG current change (%, negative = inhibition) at 1uM": 13.9},
      {"molecule": "CCSc1nnc([C@H](C)NC(=O)OC(C)(C)C)o1", "hERG current change (%, negative = inhibition) at 1uM": 2.99},
      {"molecule": "CCCCOc1ccc(Nc2nc(C)cc(C)c2C#N)cc1", "hERG current change (%, negative = inhibition) at 1uM": -0.768},
      {"molecule": "CCOC(=O)c1ccc(NC(=S)Nc2ccc3[nH]c(=O)[nH]c3c2)cc1", "hERG current change (%, negative = inhibition) at 1uM": 8.34},
      {"molecule": "Cn1c2ccccc2c2c(C(=O)N3CCN(c4ccccn4)CC3)cn(C3CCCC3)c(=O)c21", "hERG current change (%, negative = inhibition) at 1uM": 7.13},
      {"molecule": "Cc1cc(NC(=O)CSCC(=O)OC(C)C(=O)N(C)Cc2ccccc2)no1", "note": "(stereo not shown)", "hERG current change (%, negative = inhibition) at 1uM": 1.79},
      {"molecule": "Cc1ccc(C(=O)OCC(=O)Nc2c(Cl)cc(S(N)(=O)=O)cc2Cl)o1", "hERG current change (%, negative = inhibition) at 1uM": 13.8},
      {"molecule": "O=C(O)c1ccc2c(=O)n3c(nc2c1)/C(=C/c1ccc(F)cc1)CC3", "hERG current change (%, negative = inhibition) at 1uM": 18},
      {"molecule": "Cc1ccc(C(=O)OCCOc2cccc(Cl)c2)cc1S(=O)(=O)N1CCOCC1", "hERG current change (%, negative = inhibition) at 1uM": 9.74},
      {"molecule": "O=C1c2ccccc2C(=O)N1CCCCN(C(=O)c1ccc(Cl)s1)c1ccc(Cl)cc1", "hERG current change (%, negative = inhibition) at 1uM": 7.61},
      {"molecule": "Cc1ccc(-n2nnnc2SCC(=O)Nc2ccc(N3CCN(C)CC3)cc2)c(C)c1", "hERG current change (%, negative = inhibition) at 1uM": -1.09},
      {"molecule": "CC(C)[C@H](NC(=O)N1c2ccccc2NC(=O)[C@@H]1C(C)C)C(=O)N[C@@H](Cc1c[nH]c2ccccc12)C(=O)O", "hERG current change (%, negative = inhibition) at 1uM": 3.59},
      {"molecule": "O=C(Nc1ccccc1O)c1cc(S(=O)(=O)N2CCOCC2)ccc1Cl", "hERG current change (%, negative = inhibition) at 1uM": 0.208},
      {"molecule": "Cc1ccc(Nc2cc(C)nn2-c2nc(C)cc(=O)[nH]2)cc1", "hERG current change (%, negative = inhibition) at 1uM": 7.46},
      {"molecule": "CCC(C)CCN1C(N(C)C)=NC[C@@H]1CC(C)C", "note": "(stereo partly shown)", "hERG current change (%, negative = inhibition) at 1uM": 5.17},
      {"molecule": "COc1cccc(OC)c1OCc1cc(C2C3CCCC=C3C(C#N)=C(N)C2(C#N)C#N)c(C)cc1C", "note": "(stereo not shown)", "hERG current change (%, negative = inhibition) at 1uM": 13.5},
      {"molecule": "c1ccc(Cn2cc(CN3CCCO3)c(-c3ccc4c(c3)OCO4)n2)cc1", "hERG current change (%, negative = inhibition) at 1uM": 24.8},
      {"molecule": "CC1CC(C)CN(C(=O)Cn2c(=O)c3cccn3c3cccnc32)C1", "note": "(stereo not shown)", "hERG current change (%, negative = inhibition) at 1uM": -1.89},
      {"molecule": "Cc1ccc(Cl)cc1NC(=O)COC(=O)C12CC3CC(CC(C3)C1)C2", "hERG current change (%, negative = inhibition) at 1uM": 4.17},
      {"molecule": "CC(C)Cn1c(=S)[nH]c2cc(C(=O)O)ccc2c1=O", "hERG current change (%, negative = inhibition) at 1uM": 6.14},
      {"molecule": "COc1ccc(CNC(=O)COC(=O)CCOc2ccc(C)cc2)cc1", "hERG current change (%, negative = inhibition) at 1uM": 13.5},
      {"molecule": "O=C1COc2ccc(C(=O)COC(=O)c3cc(S(=O)(=O)N4CCOCC4)ccc3F)cc2N1", "hERG current change (%, negative = inhibition) at 1uM": 10.8},
      {"molecule": "CCCCSc1nnc(NC(=O)CCc2ccccc2)s1", "hERG current change (%, negative = inhibition) at 1uM": -3.68},
      {"molecule": "CCOc1ccc(C(=S)N2CCCC2)c(OCC)c1", "hERG current change (%, negative = inhibition) at 1uM": 7.44},
      {"molecule": "Cc1ccc(Nc2c(-c3ccc(C)o3)nc3cnccn23)cc1", "hERG current change (%, negative = inhibition) at 1uM": 9.32},
      {"molecule": "COc1ccc(-n2c(-c3ccco3)nc3c(cnn3-c3ccc(C)cc3)c2=O)cc1", "hERG current change (%, negative = inhibition) at 1uM": 2.82}
    ]}
  ]
}
